# Reference: the supplement of paper PMC10037445
# The full ranking holds about 2,900 compounds; the median of “IRF Lucia reporter activity, fold change vs agonist alone” is about 0.9, and the highest 2% start at about 2.8. This is one part of the list.
# What was measured:
# [1] = tested on: RAW-Dual; assay: IRF Lucia reporter activity, fold change vs agonist alone; cytotoxicity flag (confluency mask): not cytotoxic; higher = enhanced IRF activity
# Method in brief: (§1)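 RAW-Dual macrophages (50,000 cells/well in DMEM, 384-well plates) received 50 nL of library stock by pin tool, then a PRR agonist 1 h later, and were kept at 37 °C, 5% CO2. After 20 hours, supernatant was read for IRF by QuantiLuc luminescence and for NF-κB by QuantiBlue absorbance at 620 nm. Reporter activity is fold change over agonist-alone wells. Cytotoxic wells had IncuCyte confluency below 70% of agonist controls in both mask sets.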
# [2] = tested on: RAW-Dual; assay: IRF Lucia reporter activity, fold change vs agonist alone; higher = enhanced IRF activity; conditions: library stock concentration (final ~1000-fold dilution): 10 mM, agonist: MPLA (TLR4) […]
# Method in brief: as §1
# [3] = tested on: RAW-Dual; assay: IRF Lucia reporter activity, fold change vs agonist alone; cytotoxicity flag (confluency mask): cytotoxic (confluency <70% of control); higher = enhanced IRF activity
# Method in brief: as §1
# [4] = agonist: 3'3'-cGAMP (STING) 10 ug/mL
# [5] = cytotoxicity flag (confluency mask): not cytotoxic
smiles,measurement,setting,value
COC(=O)CNC(=O)C(=O)OC (library stock concentration (final ~1000-fold dilution): 10 mM),IRF Lucia reporter activity,[1]; [4],0.889
same,IRF Lucia reporter activity,[1]; agonist: LPS (TLR4) 0.1 ug/mL,1.23
Br.N#Cc1ccc(-c2csc(NN=C3CCCC3)n2)cc1 (library stock concentration (final ~1000-fold dilution): 10 mM),IRF Lucia reporter activity,[1]; [4],1.19
same,IRF Lucia reporter activity,[1]; agonist: LPS (TLR4) 0.1 ug/mL,0.644
Oc1ccc(OCc2ccccc2)cc1 (library stock concentration (final ~1000-fold dilution): 10 mM),IRF Lucia reporter activity,[1]; [4],0.738
same,IRF Lucia reporter activity,[1]; agonist: LPS (TLR4) 0.1 ug/mL,1.05
Oc1ccc(OCc2ccccc2)cc1,IRF Lucia reporter activity,[2]; [5],1.27
COc1cc(O)c(CC=C(C)C)c(O)c1C(=O)/C=C/c1ccc(O)cc1 (library stock concentration (final ~1000-fold dilution): 10 mM),IRF Lucia reporter activity,[3]; [4],0.0595
same,IRF Lucia reporter activity,[3]; agonist: LPS (TLR4) 0.1 ug/mL,0.416
Cc1cc(Nc2ncnc3ccc(-c4ccc(CNCCS(C)(=O)=O)o4)cc23)ccc1Oc1ccn2ncnc2c1,IRF Lucia reporter activity,[2]; [5],0.778
Cc1cc(Nc2ncnc3ccc(-c4ccc(CNCCS(C)(=O)=O)o4)cc23)ccc1Oc1ccn2ncnc2c1 (library stock concentration (final ~1000-fold dilution): 10 mM),IRF Lucia reporter activity,[1]; [4],0.0837
same,IRF Lucia reporter activity,[1]; agonist: LPS (TLR4) 0.1 ug/mL,0.713
Cc1ccc(Cl)c(Nc2ccccc2C(=O)O)c1Cl (library stock concentration (final ~1000-fold dilution): 10 mM),IRF Lucia reporter activity,[1]; [4],1.01
same,IRF Lucia reporter activity,[1]; agonist: LPS (TLR4) 0.1 ug/mL,1.05
Cc1ccc(Cl)c(Nc2ccccc2C(=O)O)c1Cl,IRF Lucia reporter activity,[2]; [5],0.95
CCCN(CCC)C(=O)C1=Cc2ccc(-c3ccc(C(=O)N4CCCC4)cc3)cc2N=C(N)C1 (library stock concentration (final ~1000-fold dilution): 1 mM),IRF Lucia reporter activity,[1]; [4],1
same,IRF Lucia reporter activity,[1]; agonist: LPS (TLR4) 0.1 ug/mL,1.11
O=C1Nc2ccc(I)cc2C1=Cc1cc(Br)c(O)c(Br)c1 (library stock concentration (final ~1000-fold dilution): 10 mM),IRF Lucia reporter activity,[3]; [4],0.214
same,IRF Lucia reporter activity,[3]; agonist: LPS (TLR4) 0.1 ug/mL,0.418
O=C1Nc2ccc(I)cc2C1=Cc1cc(Br)c(O)c(Br)c1,IRF Lucia reporter activity,[2]; cytotoxicity flag (confluency mask): cytotoxic (confluency <70% of control),0.615
O=C(c1cn(Cc2cncn2Cc2ccc(Br)cc2)cc1-c1cccc2ccccc12)N1CCOCC1,IRF Lucia reporter activity,[2]; [5],1.36
O=C(c1cn(Cc2cncn2Cc2ccc(Br)cc2)cc1-c1cccc2ccccc12)N1CCOCC1 (library stock concentration (final ~1000-fold dilution): 10 mM),IRF Lucia reporter activity,[1]; [4],0.237
same,IRF Lucia reporter activity,[1]; agonist: LPS (TLR4) 0.1 ug/mL,0.797
O=C1Nc2ccccc2/C1=C1\Nc2ccccc2C1=O (library stock concentration (final ~1000-fold dilution): 10 mM),IRF Lucia reporter activity,[1]; [4],0.96
same,IRF Lucia reporter activity,[1]; agonist: LPS (TLR4) 0.1 ug/mL,0.875
O=C1Nc2ccccc2/C1=C1\Nc2ccccc2C1=O,IRF Lucia reporter activity,[2]; [5],0.979
O=c1cc(-c2ccc(O)c(-c3c(O)cc(O)c4c(=O)cc(-c5ccc(O)cc5)oc34)c2)oc2cc(O)cc(O)c12 (library stock concentration (final ~1000-fold dilution): 10 mM),IRF Lucia reporter activity,[1]; [4],0.0226
same,IRF Lucia reporter activity,[1]; agonist: LPS (TLR4) 0.1 ug/mL,0.0594
O=C1c2c(O)cccc2C(C2OC(CO)C(O)C(O)C2O)c2cc(CO)cc(O)c21 (stereo not given),IRF Lucia reporter activity,[2]; [5],1.01
O=C1c2c(O)cccc2C(C2OC(CO)C(O)C(O)C2O)c2cc(CO)cc(O)c21 (stereo not given) (library stock concentration (final ~1000-fold dilution): 10 mM),IRF Lucia reporter activity,[1]; [4],0.954
same,IRF Lucia reporter activity,[1]; agonist: LPS (TLR4) 0.1 ug/mL,1.26
COc1ccccc1S(=O)(=O)Nc1ccc2c(c1)CN(C)C(=O)N2,IRF Lucia reporter activity,[2]; [5],0.214
COc1ccccc1S(=O)(=O)Nc1ccc2c(c1)CN(C)C(=O)N2 (library stock concentration (final ~1000-fold dilution): 10 mM),IRF Lucia reporter activity,[1]; [4],0.45
same,IRF Lucia reporter activity,[1]; agonist: LPS (TLR4) 0.1 ug/mL,0.27
CC(C)C1=CC2=CCC3C(C)(C(=O)O)CCCC3(C)C2CC1 (stereo not given) (library stock concentration (final ~1000-fold dilution): 10 mM),IRF Lucia reporter activity,[1]; [4],0.891
same,IRF Lucia reporter activity,[1]; agonist: LPS (TLR4) 0.1 ug/mL,1.32
CC(C)C1=CC2=CCC3C(C)(C(=O)O)CCCC3(C)C2CC1 (stereo not given),IRF Lucia reporter activity,[2]; [5],1.05
CCCCC(=O)N(Cc1ccc(-c2ccccc2-c2nn[nH]n2)cc1)C(C(=O)O)C(C)C (stereo not given) (library stock concentration (final ~1000-fold dilution): 10 mM),IRF Lucia reporter activity,[1]; [4],0.655
same,IRF Lucia reporter activity,[1]; agonist: LPS (TLR4) 0.1 ug/mL,0.605
CCCCC(=O)N(Cc1ccc(-c2ccccc2-c2nn[nH]n2)cc1)C(C(=O)O)C(C)C (stereo not given),IRF Lucia reporter activity,[2]; [5],0.643
FC(F)c1nc2ccccc2n1-c1nc(N2CCOCC2)nc(N2CCOCC2)n1 (library stock concentration (final ~1000-fold dilution): 10 mM),IRF Lucia reporter activity,[1]; [4],0.46
same,IRF Lucia reporter activity,[1]; agonist: LPS (TLR4) 0.1 ug/mL,1.62
FC(F)c1nc2ccccc2n1-c1nc(N2CCOCC2)nc(N2CCOCC2)n1,IRF Lucia reporter activity,[2]; [5],1.21
CN(C(=O)CNC(=O)/C=C/c1cccc(Cl)c1)C1CCS(=O)(=O)CC1 (library stock concentration (final ~1000-fold dilution): 10 mM),IRF Lucia reporter activity,[1]; [4],0.668
same,IRF Lucia reporter activity,[1]; agonist: LPS (TLR4) 0.1 ug/mL,0.91
